# This is one part of the list.
# Biological target: T1, OsWOX13 (Oryza sativa, UniProt Q5QMM3 1-267)
# T1 sequence: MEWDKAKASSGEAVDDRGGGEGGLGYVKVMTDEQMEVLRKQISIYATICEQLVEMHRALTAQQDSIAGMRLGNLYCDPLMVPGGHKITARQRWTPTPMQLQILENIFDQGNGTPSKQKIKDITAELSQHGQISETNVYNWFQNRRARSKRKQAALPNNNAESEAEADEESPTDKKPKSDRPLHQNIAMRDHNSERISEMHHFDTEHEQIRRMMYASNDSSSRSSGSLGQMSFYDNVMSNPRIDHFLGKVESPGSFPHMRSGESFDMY
# Test: protein-binding microarray (RPBM); PBS, 2% BSA, 51.3 ng/ul salmon testes DNA, 50 uM zinc acetate, 200 nM TF, 25 C, 1 h; high values mean tight binding
# Conditions: protein: recombinant; tags: N-terminal polyhistidine and DsRed monomer fusion (pET32a); label: CyDye5-dUTP incorporated in the synthesized complementary strand; 3' TTTTT single-stranded linker to array surface; dsDNA, one strand shown
# Outline: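 Binding signal is reported as fluorescence intensity per feature (arbitrary units) from an Axon 4000B scanner. Incubation used 200 nM of each Ni–NTA-purified, N-terminally polyhistidine- and DsRed-fused transcription factor from E. coli BL21-CodonPlus on a double-stranded custom Agilent array for 1 h at 25 °C, with 50 µM zinc acetate in the buffer, followed by washing.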
row,Sequence,binding signal
1,AGTAATTGACTAAGATTGATAGGTTAATTCTTTACTACTTCGGAGTCACCTAGTGCAG,44400 fluorescence intensity (a.u.)
2,ACAAAATTTTCATCGTCATCCACGATCCAACCACCAGCTGCGGAGTCACCTAGTGCAG,3780 fluorescence intensity (a.u.)
3,ATAAAATTGGCTATATGCTGAAGTTGGATAGCTGATAGGCCGGAGTCACCTAGTGCAG,6240 fluorescence intensity (a.u.)
4,TGTAAATCCTAAAATTACATACTAATTACATATGTAAGTGCGGAGTCACCTAGTGCAG,14900 fluorescence intensity (a.u.)
5,CTCGTTGATTTCTCTTGCGCCAGATTAAGCGAACAATGCCCGGAGTCACCTAGTGCAG,13500 fluorescence intensity (a.u.)
6,TTTTAATTAGTAATGTGATATCAAACATATTGACACCGTTCGGAGTCACCTAGTGCAG,41900 fluorescence intensity (a.u.)
7,TGCAATCATGGACCAATATAGATAGATCGATGTGCATTGCCGGAGTCACCTAGTGCAG,3810 fluorescence intensity (a.u.)
8,CTTAATTTCAGCTTACTGATCAGTGATCACTGAGCTAGCTCGGAGTCACCTAGTGCAG,15500 fluorescence intensity (a.u.)
9,TTTTACAATCATGATGCTCACTCATGGTGCTAATGACTTGCGGAGTCACCTAGTGCAG,4140 fluorescence intensity (a.u.)
10,TTTGGCGCAACAGAAGCTGATTGGGGAGCTGGATACGGTTCGGAGTCACCTAGTGCAG,5500 fluorescence intensity (a.u.)
11,TAAAATTGGGCGTGAGATTTTCTGTGGCTAAGAGGAGTAGCGGAGTCACCTAGTGCAG,6280 fluorescence intensity (a.u.)
12,CTCGAGGTCAAATCTTGATTAATTATGCTAATTAACGCGACGGAGTCACCTAGTGCAG,16800 fluorescence intensity (a.u.)
13,CATGATTAAGAGATCAAGACAAGTACATTTGGGCCCTATCCGGAGTCACCTAGTGCAG,16500 fluorescence intensity (a.u.)
14,CAACCAATCAATCACATACGTGGACAACTGCAGAAAATGCCGGAGTCACCTAGTGCAG,39800 fluorescence intensity (a.u.)
15,CTTTTAATTTGTCTTCAGAGAATCGAAGATATCAAATGGACGGAGTCACCTAGTGCAG,5350 fluorescence intensity (a.u.)
16,TTTAATTTTATTAAATTCTCCATGGTTAATTCTGCTCTTTCGGAGTCACCTAGTGCAG,17400 fluorescence intensity (a.u.)
17,CCCTTAATGTAAATAGGTCTTCAGGAGAGAGAATACTCGGCGGAGTCACCTAGTGCAG,5230 fluorescence intensity (a.u.)
18,ATTTGTTAATTATTTAAATAACTTCTTATATTTTCGTAGACGGAGTCACCTAGTGCAG,23500 fluorescence intensity (a.u.)
19,AATTGACGGAGATAGATTCTAATAGCTCGAGTGGACGTCCCGGAGTCACCTAGTGCAG,7650 fluorescence intensity (a.u.)
20,TCATCAGCAATCACAACTGAATTTACAGTCTATAGGCTCCCGGAGTCACCTAGTGCAG,5400 fluorescence intensity (a.u.)
21,TGGTAAAACAAATTGAAGGAGAGTAACATGAACTTATTCGCGGAGTCACCTAGTGCAG,7020 fluorescence intensity (a.u.)

row,Sequence,binding signal
1,AATTCCGATTAGAATTGGATTGATAAATCCGTTAAAACAACGGAGTCACCTAGTGCAG,10900 fluorescence intensity (a.u.)
2,ATTAGTTCATAATTAACCATAAATGCTACCATGCTAATGACGGAGTCACCTAGTGCAG,5410 fluorescence intensity (a.u.)
3,TTAATTAGGAGATATTGATTGATAAACGTACCTCTTGGTGCGGAGTCACCTAGTGCAG,65300 fluorescence intensity (a.u.)
4,TAAGGGTTAATTGGATCCACGCTATTGCAGATATGTCAATCGGAGTCACCTAGTGCAG,14300 fluorescence intensity (a.u.)
5,GTTCTAGACTTTAATTATCTGTATGTATAATATATATATCCGGAGTCACCTAGTGCAG,4680 fluorescence intensity (a.u.)
6,TTAATAGCCATCTTGTCAATTTAAATTCACTGTAATTTCACGGAGTCACCTAGTGCAG,13300 fluorescence intensity (a.u.)
7,TATACACATACTGATTAATTAATGGCTGTTGATTAATTAGCGGAGTCACCTAGTGCAG,33500 fluorescence intensity (a.u.)
8,ATTGTCATAAAATTTCATAATTGTATGCATGGTCACCGGTCGGAGTCACCTAGTGCAG,3710 fluorescence intensity (a.u.)
9,AAAATTTTAACTATTAATAATTTCTCAAACCGTTTGGTTTCGGAGTCACCTAGTGCAG,15800 fluorescence intensity (a.u.)
10,TTAAATAGATGCACATATTTGACAACTTAAATATGAACAACGGAGTCACCTAGTGCAG,5060 fluorescence intensity (a.u.)
11,AGTTTGATGGATTTCACCCGGAGATACACCGTACGATTTACGGAGTCACCTAGTGCAG,8080 fluorescence intensity (a.u.)
12,TCAATCACATGATTGATACTGGTGTACCTCCGGACACAGCCGGAGTCACCTAGTGCAG,46300 fluorescence intensity (a.u.)
13,CTATTTCTATAAATTGATCATTTGGGCACTCAATTGTTTCCGGAGTCACCTAGTGCAG,11900 fluorescence intensity (a.u.)
14,TTATACGAGTGACAGATGGCAAATCAGGAAGTGATTAGGACGGAGTCACCTAGTGCAG,4270 fluorescence intensity (a.u.)
15,CCTGCTATGATTTATGGACAAGATACATTGCGTTCTCACTCGGAGTCACCTAGTGCAG,7850 fluorescence intensity (a.u.)
16,TTTGACATGGAAACTCATAACTGCGTTTAAAATAGGATGGCGGAGTCACCTAGTGCAG,8720 fluorescence intensity (a.u.)
17,GAAATTGGAGATGATGTGACTGAAAAGTTGTGAGTGTATGCGGAGTCACCTAGTGCAG,13100 fluorescence intensity (a.u.)
18,ATCACGTGATTAAAACAGTAATTATCGAGCACGGAAGGAACGGAGTCACCTAGTGCAG,31200 fluorescence intensity (a.u.)
19,CGCAATTAGACAAAACAAATCACACTCGCTTCGCTAATCGCGGAGTCACCTAGTGCAG,22400 fluorescence intensity (a.u.)
20,ACATATAATTATAATTGAATGGGTTATGTTTCATTTGTATCGGAGTCACCTAGTGCAG,35900 fluorescence intensity (a.u.)
21,CTATTCAAATCAGGCCCATTAATTTTGTCACTTTCTCTATCGGAGTCACCTAGTGCAG,9970 fluorescence intensity (a.u.)
